# Test results from PubChem BioAssay AID624173 (National Center for Advancing Translational Sciences (NCATS), 2012).
# In all, about 410,000 compounds went through this assay and about 490 (0.12%) were called active. The shares of active, inactive and inconclusive entries below differ from those in the screen. The call rests on the fitted dose curve; in most records, active means well fitted inhibition curve with a large enough effect; inconclusive means small, poorly fitted or top-dose-only effect; inactive means flat fitted curve, though single readings scatter. A potency beside an inconclusive call is a rough fit, not a confirmed value.
# Biological target: pyruvate kinase (Trypanosoma brucei) (UniProt Q57TT1)
# Experiment: qHTS of Trypanosoma Brucei Inhibitors; further: nearly all actives have a fitted effect of over 50% in size
# Conditions: TbPYK enzyme, Kinase-Glo Plus ATP luminescence, 45 min; series mostly up to 76.8 µM
# Procedure, shortened: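 Glycolytic pyruvate kinase of T. brucei was incubated with substrate, test compound and 130 uM ADP for 45 minutes at room temperature. Luminescent Kinase-Glo Plus signal was measured after 10 minutes.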
# Potency means the concentration at half of the fitted maximal effect; tags describe the fitted curve by direction and shape.
row,SMILES,Potency
1,COc1cc2c(cc1OC)C(c1ccc([N+](=O)[O-])cc1)NCC2 (stereo unspecified),"inconclusive: 35.5 µM [inhibitor, partial curve, poor fit]"
2,Cc1ccccc1NC(=O)C(=O)Nc1ccccc1C,inactive
3,Cc1ccc(S(=O)(=O)Nc2cccc(C(=O)NCC(c3ccco3)N3CCCC3)c2)cc1F (stereo unspecified),"inconclusive: 50.1 µM [inhibitor, single point]"
4,COc1cc(CCCN2CCNC[C@@H]2c2ccccc2)cc(OC)c1OC,inactive
5,CCOc1cc2[nH]c(=S)n(Cc3ccc(C(=O)NCCN(CC)CC)cc3)c(=O)c2cc1OCC,"inconclusive: 28.2 µM [inhibitor, partial curve, poor fit]"
6,Cc1cccc(N2C(=O)NC(=O)/C(=C/c3cc4c(cc3[N+](=O)[O-])OCO4)C2=O)c1,"inconclusive: 25.1 µM [inhibitor, partial curve]"
7,COc1ccc(CCNC(=O)Cn2nc(C)c3c(C)n(-c4ccc(C)cc4)nc3c2=O)c(OC)c1,inactive
8,CC(=O)c1cc(-c2ccccc2)n(CCC(=O)NC2CCCCCC2)c1C,"inconclusive: 50.1 µM [inhibitor, single point]"
9,COc1cccc2[nH]c(C(=O)NCc3ccccc3)cc12,"inconclusive: 5.01 µM [inhibitor, full curve]"
10,Cc1cc(C)c(C(=O)CSc2nc(C)cc(=O)[nH]2)c(C)c1,"inconclusive: 31.6 µM [inhibitor, single point]"
11,O=C(NC1CCCCC1)C(=S)NCCc1ccccc1,"inconclusive: 7.94 µM [inhibitor, partial curve]"
12,C=CCn1c(Cc2c[nH]c3ccccc23)n[nH]c1=S,active: 12.6 µM
13,NC(=O)C1(N2CCCCC2)CCN(C(=S)Nc2ccc(S(N)(=O)=O)cc2)CC1,"inconclusive: 35.5 µM [inhibitor, single point]"
14,O=C(CSc1ccc2nnc(-c3cccc(F)c3)n2n1)NCC1CCCO1 (stereo unspecified),"inconclusive: 35.5 µM [inhibitor, single point]"
15,O=C(COc1ccccc1)Nc1nnc(SCc2cc(=O)c3ccccc3[nH]2)s1,"inconclusive: 39.8 µM [inhibitor, partial curve]"
16,O=C(c1nn2c(C(F)(F)F)cc(-c3cccs3)nc2c1Cl)N1CCCc2ccccc21,inactive
17,Cc1ccccc1NC(=O)C(=O)NNC(=O)COc1ccc2ccccc2c1,"inconclusive: 35.5 µM [inhibitor, partial curve, poor fit]"
18,CCSCc1nc2ccccn2c1Br,inactive
19,COc1ccc(OC)c(N/C=C/C(=O)c2ccccc2)c1,"inconclusive: 25.1 µM [inhibitor, partial curve]"
20,CCCc1cc(N2CCN(c3ccc(OC)cc3)CC2)n2cnnc2n1,inactive
21,Cc1cc(C)c(NC(=O)OCCN2CCOCC2)c(C)c1,"inconclusive: 28.2 µM [inhibitor, single point]"
22,O=C(Nc1ccc(-c2csc(Nc3ccccc3)n2)cc1)c1cc([N+](=O)[O-])cc(C(F)(F)F)c1,inactive
23,CCOC(=O)C1=C(Cc2ccc(F)cc2)C(=O)c2ccccc2C1=O,"inconclusive: 17.8 µM [inhibitor, partial curve]"
24,COCCN(C(=O)C1CC1)c1nnc(-c2cccc(C)c2)s1,inactive

row,SMILES,Potency
1,CN1C(=O)/C(=C2/C=CC=CN2C)OC1=S,inactive
2,N#CC1=C2SCN(Cc3ccccc3)CN2C(=O)CC1c1ccccc1F (stereo unspecified),"inconclusive: 35.5 µM [inhibitor, partial curve, poor fit]"
3,Cc1ccc(CCCNC(=O)C2CCC(=O)N(Cc3cccc(F)c3)C2)cc1 (stereo unspecified),inactive
4,CCCOc1ccc(CCc2n[nH]c(=S)n2Cc2ccccc2)cc1,"inconclusive: 28.2 µM [inhibitor, partial curve, poor fit]"
5,CCOC(=O)C1(c2ccccc2)CCCN(C)CC1 (stereo unspecified),inactive
6,CCC1Oc2ccc(C)cc2N(CC(=O)N(Cc2ccc(C)o2)C2CCCC2)C1=O (stereo unspecified),"inconclusive: 35.5 µM [inhibitor, partial curve, poor fit]"
7,N#CCCN(CCN1CCCC1)S(=O)(=O)c1ccc(-c2ccc([N+](=O)[O-])cc2)cc1,inactive
8,O=C(/C=C/c1ccc(O)cc1)c1ccccc1,"inconclusive: 20 µM [inhibitor, partial curve]"
9,O=C(NCc1n[nH]c(=S)n1-c1ccc(F)cc1)c1ccc(S(=O)(=O)N2CCCCC2)cc1,"inconclusive: 12.6 µM [inhibitor, partial curve, poor fit]"
10,Cc1ccc(C(=O)Nc2ccc(C(=O)N3CCCCC3)cc2)o1,"inconclusive: 28.2 µM [inhibitor, partial curve, poor fit]"
11,CC(=O)c1cccc(NC(=O)CSc2ccc(-c3ccco3)nn2)c1,"inconclusive: 31.6 µM [inhibitor, single point]"
12,COc1ccc(CNS(=O)(=O)c2ccc(-c3ccc(=O)[nH]n3)o2)cc1,inactive
13,Clc1ccc(-c2nnc(-c3ccco3)nc2N2CCCCC2)cc1,"inconclusive: 17.8 µM [inhibitor, partial curve, poor fit]"
14,COc1ccc(OCCNC(=O)c2ccccc2OCC(=O)Nc2ccc(NC(C)=O)cc2)cc1,inactive
15,CCC(=O)N(CC)C1=C(O)c2ccccc2C(=O)C1=O,"inconclusive: 12.6 µM [inhibitor, partial curve, poor fit]"
16,O=C(OCc1cc(=O)n2nc(C3CC3)sc2n1)c1ccc(NC(=O)c2ccccc2F)cc1,inactive
17,Cc1ccc(-c2cc(C(=O)N3CCN(c4ncccn4)CC3)c3cc(Br)ccc3n2)o1,"inconclusive: 25.1 µM [inhibitor, partial curve]"
18,CC1=CC(=O)C=CC1=Nc1ccc(N(C)C)cc1,active: 35.5 µM
19,CCN(C(=O)Cn1ncc2c(=O)oc3ccccc3c21)c1ccccc1F,inactive
20,CCN(CC)CCN(C(=O)c1ccc2ncsc2c1)c1nc2cc3c(cc2s1)OCO3,"inconclusive: 25.1 µM [inhibitor, partial curve, poor fit]"
21,CCCn1c(SCC(=O)Nc2ccccc2CC)nnc1C(C)C,"inconclusive: 35.5 µM [inhibitor, single point]"
22,Nc1ccn([C@@H]2O[C@H](CO)[C@@H](O)[C@H]2O)c(=O)n1,inactive
23,CCOC(=O)C(=Cc1cc(=O)c(OC)co1)C(=O)OCC,"inconclusive: 35.5 µM [inhibitor, partial curve, poor fit]"
24,O=c1[nH]c(=S)[nH]c2c1C(c1ccc(Br)cc1)c1c([nH]c(=S)[nH]c1=O)O2,"inconclusive: 28.2 µM [inhibitor, partial curve]"

row,SMILES,Potency
1,CCCN1C(=O)/C(=C2/C=Cc3ccccc3N2CC)SC1=S,inactive
2,CCOc1c(Br)cc(/C=C2\C(=O)N(CCC#N)N=C2C)cc1OC,"inconclusive: 28.2 µM [inhibitor, partial curve, poor fit]"
3,O=C(CCCN1C(=O)c2ccccc2C1=O)Oc1ccc(F)cc1,inactive
4,CCCn1nnnc1SCC(=O)N1CCCC1,"inconclusive: 50.1 µM [inhibitor, single point]"
5,CC(C)CC1=C/C(=C/c2ccc(-c3ccccc3)o2)C(=O)O1,inactive
6,CC1(C)Cc2c(c(-c3ccco3)nc3sc4c(NCC5CCCO5)ncnc4c23)CO1 (stereo unspecified),"inconclusive: 28.2 µM [inhibitor, partial curve, poor fit]"
7,COc1ccc(N/C=C\C(=O)c2ccc3ccccc3c2)cc1,inactive
8,COc1ccc(CNC(=O)C[C@H]2C[C@H](C(=O)N3CCOCC3)[C@@]3(C)c4[nH]c5ccc(Cl)cc5c4CCN3C2=O)cc1OC,"inconclusive: 31.6 µM [inhibitor, single point]"
9,Cc1cc2nc3c(=O)n(C4CCCCC4)c(=O)[nH]c3nc2cc1N,"inconclusive: 3.98 µM [inhibitor, full curve, poor fit]"
10,COc1cc(OC)c(NC(=O)Nc2cccc(OCc3cc(=O)n4ccccc4n3)c2)cc1Cl,inactive
11,Cc1ccc(-c2cc(C(=O)N3CCOCC3)c3ccccc3n2)o1,"inconclusive: 39.8 µM [inhibitor, partial curve, poor fit]"
12,COC(=O)CSC1=NS(=O)(=O)c2ccccc21,active: 22.4 µM
13,O=S(=O)(c1ccc(-c2n[nH]c(=S)o2)cc1)N1CCCC1,"inconclusive: 31.6 µM [inhibitor, partial curve, poor fit]"
14,CN1CCc2nc(NC(=O)c3cccc(OC(F)F)c3)sc2C1,inactive
15,COC1=CC(=O)OC(c2ccco2)C1 (stereo unspecified),inactive
16,O=C(Nc1ncc([N+](=O)[O-])s1)c1ccc2c(c1)OCO2,"inconclusive: 7.94 µM [inhibitor, partial curve]"
17,O=C1NC(=O)C(=Cc2ccc(Oc3ccc([N+](=O)[O-])cc3)cc2)C(=O)N1,"inconclusive: 28.2 µM [inhibitor, partial curve, poor fit]"
18,Cc1ccc(OCc2n[nH]c(=S)n2-c2ccc(C)cc2)cc1,"inconclusive: 7.08 µM [inhibitor, full curve]"
19,O=C(CSc1ccc(Cl)cc1)N1CCCC1,"inconclusive: 50.1 µM [inhibitor, single point]"
20,Cc1nn(-c2ccccc2)c(C)c1NC(=O)COC(=O)c1ccc(O)cc1O,inactive
21,S=c1[nH]c2ccc(Cl)cc2s1,"inconclusive: 10 µM [inhibitor, partial curve, poor fit]"
22,CCn1c(SCC(=O)Nc2oc(C)c3c(C)n[nH]c(=O)c23)nnc1-c1ccco1,inactive
23,CN(C)c1ccc2c(c1)N=C(c1ccco1)OP2(=S)N1CCOCC1 (stereo unspecified),"inconclusive: 17.8 µM [inhibitor, partial curve]"
